Reference: publication PMC5127641 (eLife, 2016)

Experiments:
[1] = biological target: αBCL2; experiment: BLI; biotinylated BCL2 homolog (25 nM) immobilised on streptavidin biosensors, designed protein in solution at defined concentrations; Octet RED96; 10 mM HEPES pH 7.4, 150 mM NaCl, 3 mM EDTA, 0.05% surfactant P20, 0.5% non-fat dry milk; titrations in triplicate, 1:1 binding model; conditions: both partners purified
[2] = biological target: M-CDP04 (αMCL1); experiment: as above; conditions: both partners purified
Chain of M-CDP04 (αMCL1) (Q07817 1-209): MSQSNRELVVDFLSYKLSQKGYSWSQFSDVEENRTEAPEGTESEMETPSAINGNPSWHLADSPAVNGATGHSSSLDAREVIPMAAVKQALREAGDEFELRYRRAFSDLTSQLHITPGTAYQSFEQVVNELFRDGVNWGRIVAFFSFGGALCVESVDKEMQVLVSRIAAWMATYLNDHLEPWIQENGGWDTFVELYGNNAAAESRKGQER

Chain of αBCL2 (Q07817 1-209): as above

B1: Bcl-xL (natural protein)
chain: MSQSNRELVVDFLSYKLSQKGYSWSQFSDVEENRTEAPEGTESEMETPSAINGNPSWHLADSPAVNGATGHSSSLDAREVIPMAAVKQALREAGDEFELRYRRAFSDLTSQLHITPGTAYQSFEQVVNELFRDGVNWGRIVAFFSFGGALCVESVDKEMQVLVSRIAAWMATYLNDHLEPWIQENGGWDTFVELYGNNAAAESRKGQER
modifications: biotin (enzymatic, BirA)
- Kd [1]: 3.32 µM and 3.48 µM and 3.81 µM and 3.54 µM
- koff [1]: 0.398 s⁻¹ and 0.404 s⁻¹ and 0.401 s⁻¹ (2×)
- kon [1]: 120000 M⁻¹ s⁻¹ and 116000 M⁻¹ s⁻¹ and 105000 M⁻¹ s⁻¹ and 114000 M⁻¹ s⁻¹
- Kd [2]: 355 µM and 332 µM and 340 µM and 342 µM
- koff [2]: 0.762 s⁻¹ and 0.764 s⁻¹ and 0.594 s⁻¹ and 0.707 s⁻¹
- kon [2]: 2150 M⁻¹ s⁻¹ and 2300 M⁻¹ s⁻¹ and 1750 M⁻¹ s⁻¹ and 2070 M⁻¹ s⁻¹

“And” between values parts separate entries of the source, which are not always exact repeats. Equal values may be shown once.
